1 molecule from patent publication US20220348661A1 (HARBOUR BIOMED SHANGHAI, published 2022) can be followed below.

The experiment concerns the target T1, human CD3 (human, UniProt P07766; P09693; P04234; P20963).
T1 construct: whole, on cells; SP34 is described as an anti-human CD3e antibody; also called human TCR/CD3 complex; CD3 on human pan-T cells
In words: flow cytometry on human pan-T cells, scFv-Fc; MFI at 7.4 or 10 µg/ml relative to PR000260. From the text:
The flow cytometryFACS was used to analyse the binding of the CD3 antibody to CD3-expressing cells, where the CD3-expressing cells could be: CHOK1 cells overexpressing human CD3 or HEK 293 cells (plasmids encoding the ORF of γ, δ, ε, and ζ chains of human-derived CD3 and plasmids encoding the ORF of α and β chains of human TCR were co-transfected with host cells CHOK1 (ATCC, CCL-61) or HEK293 (ATCC, CRL-1573) to construct stable cell lines expressing the structure of the human TCR/CD3 complex); CHOK1 or HEK293 cells overexpressing cynomolgus monkey CD3; human pan-T cells (isolated with the human pan-T cell isolation kit (Miltenyi, #130-096-535) from PBMC); cynomolgus monkey pan-T cells. […] The fluorescent luminescence signal value were read by flow cytometry (BD FACS CANTOII or ACEA NovoCyte), and the resulted data were processed and analyzed by software FlowJo v10 (FlowJo, LLC). […]
FIGS. 8(A) and (B) show the binding capacity of the anti-CD3 scFv-Fc single chain antibody obtained in the Example 4.3 to human pan-T cells The fluorescence intensity MFI of the CD3 antibody binding to human pan-T cells and the relative ratio relative to the initial antibody PR000260 were calculated when the antibody concentration was 7.4 or 10 μg/ml.

T1 sequence (P07766 23-207, chain 1 of 4): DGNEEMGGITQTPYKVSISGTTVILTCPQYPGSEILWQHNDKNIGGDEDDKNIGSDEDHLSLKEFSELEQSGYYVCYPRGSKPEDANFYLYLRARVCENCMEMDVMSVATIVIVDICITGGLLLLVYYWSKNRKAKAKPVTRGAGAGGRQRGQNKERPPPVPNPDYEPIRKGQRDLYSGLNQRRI
T1 sequence (P09693 23-182, chain 2 of 4, further chain): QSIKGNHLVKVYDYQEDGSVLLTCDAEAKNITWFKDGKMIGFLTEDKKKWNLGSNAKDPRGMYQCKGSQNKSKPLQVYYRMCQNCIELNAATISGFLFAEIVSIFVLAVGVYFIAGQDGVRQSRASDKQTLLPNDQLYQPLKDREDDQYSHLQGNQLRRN
T1 sequence (P04234 22-171, chain 3 of 4, further chain): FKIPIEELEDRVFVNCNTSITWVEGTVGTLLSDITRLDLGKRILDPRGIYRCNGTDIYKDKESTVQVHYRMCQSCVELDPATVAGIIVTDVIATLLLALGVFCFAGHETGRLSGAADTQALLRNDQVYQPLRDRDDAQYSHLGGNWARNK
T1 sequence (P20963 22-164, chain 4 of 4, further chain): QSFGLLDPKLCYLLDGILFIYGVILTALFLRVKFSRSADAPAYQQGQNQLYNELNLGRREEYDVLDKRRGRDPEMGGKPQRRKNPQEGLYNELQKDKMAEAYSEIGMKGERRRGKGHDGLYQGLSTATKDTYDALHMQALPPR

B1: PR000624 (scFv)
scFv: EVQLVESGGGLVQPGGSLKLSCAASGFTFNTYAMNWVRQASGKGLEWVGRIRSKYNNYATYYADSVKDRFTISRDDSKSTLYLQMNSLKTEDTAVYYCVRHGNFGNSYVSWFAYWGQGTLVTVSSGGGQSGQGGSGGGGSDAQMTQSPSSLSASVGDRVTITCRSSTGAVTTSNYANWVQQKPGKAPKGLIGGTNKRAPGVPSRFSGSLSGDDATLTISSLQPEDFATYFCALWYSNLWVFGGGTKVEIKAS[human IgG1 Fc with changes not written out]
notes: also called anti-CD3 scFv-Fc antibody PR000624
As to B1, the binding result is listed as “binds”.
